Assay results published in the supplement of paper PMC8728848.
This is one part of the list.

What was measured:
Assay in all cases: glycan array binding signal (z-score within array); higher = stronger binding
Details in all cases: glycan notation: IUPAC condensed, linker removed
[1] = biological target: Fuc(a1-2)Gal
Summary of the method: (§1)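 The binding signal is a Z-score computed within each array and averaged over linkers. Arrays of the same protein sequence at different concentrations or buffers were also averaged together. Data originate from 3228 arrays in the Consortium for Functional Glycomics database, kept only where the protein sequence was available.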

[2] = biological target: Fuc(a1-2)Gal(b1-3)GalNAc
Summary of the method: as §1

[3] = biological target: Fuc(a1-2)Gal(b1-3)GalNAc(a1-3)[Fuc(a1-2)]Gal(b1-4)Glc
Summary of the method: as §1

[4] = biological target: Fuc(a1-2)Gal(b1-3)GalNAc(a1-3)[Fuc(a1-2)]Gal(b1-4)GlcNAc
Summary of the method: as §1

[5] = biological target: Fuc(a1-2)Gal(b1-3)GalNAc(b1-3)Gal
Summary of the method: as §1

[6] = biological target: Fuc(a1-2)Gal(b1-3)GalNAc(b1-3)Gal(a1-4)Gal(b1-4)Glc
Summary of the method: as §1

[7] = biological target: Fuc(a1-2)Gal(b1-3)GalNAc(b1-4)[Neu5Ac(a2-3)]Gal(b1-4)Glc
Summary of the method: as §1

[8] = biological target: Fuc(a1-2)Gal(b1-3)GlcNAc
Summary of the method: as §1

[9] = biological target: Fuc(a1-2)Gal(b1-3)GlcNAc(b1-2)Man(a1-3)[Fuc(a1-2)Gal(b1-3)GlcNAc(b1-2)Man(a1-6)]Man(b1-4)GlcNAc(b1-4)GlcNAc
Summary of the method: as §1

[10] = biological target: Fuc(a1-2)Gal(b1-3)GlcNAc(b1-2)Man(a1-3)[Fuc(a1-2)Gal(b1-3)GlcNAc(b1-2)Man(a1-6)]Man(b1-4)GlcNAc(b1-4)[Fuc(a1-6)]GlcNAc
Summary of the method: as §1

[11] = biological target: Fuc(a1-2)Gal(b1-3)GlcNAc(b1-3)Gal(b1-4)Glc
Summary of the method: as §1

[12] = biological target: Fuc(a1-2)Gal(b1-3)GlcNAc(b1-3)GalNAc
Summary of the method: as §1

[13] = biological target: Fuc(a1-2)Gal(b1-3)GlcNAc(b1-3)[Fuc(a1-3)[Gal(b1-4)]GlcNAc(b1-6)]Gal(b1-4)Glc
Summary of the method: as §1

[14] = biological target: Fuc(a1-2)Gal(b1-3)GlcNAc(b1-3)[Gal(b1-4)GlcNAc(b1-6)]Gal(b1-4)Glc
Summary of the method: as §1

[15] = biological target: Fuc(a1-2)Gal(b1-3)[Fuc(a1-4)]GlcNAc
Summary of the method: as §1

[16] = biological target: Fuc(a1-2)Gal(b1-3)[Fuc(a1-4)]GlcNAc(b1-2)Man(a1-3)[Fuc(a1-2)Gal(b1-3)[Fuc(a1-4)]GlcNAc(b1-2)Man(a1-6)]Man(b1-4)GlcNAc(b1-4)GlcNAc
Summary of the method: as §1

[17] = biological target: Fuc(a1-2)Gal(b1-3)[Fuc(a1-4)]GlcNAc(b1-3)[Fuc(a1-3)[Gal(b1-4)]GlcNAc(b1-6)]Gal(b1-4)Glc
Summary of the method: as §1

[18] = biological target: Fuc(a1-2)Gal(b1-3)[Fuc(a1-4)]GlcNAc(b1-3)[Gal(b1-4)GlcNAc(b1-6)]Gal(b1-4)Glc
Summary of the method: as §1

[19] = biological target: Fuc(a1-2)Gal(b1-4)Glc
Summary of the method: as §1

[20] = biological target: Fuc(a1-2)Gal(b1-4)Glc6S
Summary of the method: as §1

[21] = biological target: Fuc(a1-2)Gal(b1-4)GlcNAc
Summary of the method: as §1

[22] = biological target: Fuc(a1-2)Gal(b1-4)GlcNAc(b1-2)Man(a1-3)[Fuc(a1-2)Gal(b1-4)GlcNAc(b1-2)Man(a1-6)]Man(b1-4)GlcNAc(b1-4)GlcNAc
Summary of the method: as §1

[23] = biological target: Fuc(a1-2)Gal(b1-4)GlcNAc(b1-2)Man(a1-3)[Fuc(a1-2)Gal(b1-4)GlcNAc(b1-2)Man(a1-6)]Man(b1-4)GlcNAc(b1-4)[Fuc(a1-6)]GlcNAc
Summary of the method: as §1

[24] = biological target: Fuc(a1-2)Gal(b1-4)GlcNAc(b1-2)[Fuc(a1-2)Gal(b1-4)GlcNAc(b1-4)]Man(a1-3)[Fuc(a1-2)Gal(b1-4)GlcNAc(b1-2)Man(a1-6)]Man(b1-4)GlcNAc(b1-4)GlcNAc
Summary of the method: as §1

[25] = biological target: Fuc(a1-2)Gal(b1-4)GlcNAc(b1-3)Gal(b1-4)GlcNAc
Summary of the method: as §1

[26] = biological target: Fuc(a1-2)Gal(b1-4)GlcNAc(b1-3)Gal(b1-4)GlcNAc(b1-3)Gal(b1-4)GlcNAc
Summary of the method: as §1

[27] = biological target: Fuc(a1-2)Gal(b1-4)GlcNAc(b1-3)GalNAc
Summary of the method: as §1

[28] = biological target: Fuc(a1-2)Gal(b1-4)GlcNAc6S
Summary of the method: as §1

[29] = biological target: Fuc(a1-2)Gal(b1-4)[Fuc(a1-3)]GlcNAc
Summary of the method: as §1

[30] = biological target: Fuc(a1-2)Gal(b1-4)[Fuc(a1-3)]GlcNAc(b1-2)Man(a1-3)[Fuc(a1-2)Gal(b1-4)[Fuc(a1-3)]GlcNAc(b1-2)Man(a1-6)]Man(b1-4)GlcNAc(b1-4)GlcNAc
Summary of the method: as §1

B1: Gal 7 (Canis lupus) (protein)
chain: MAGSSNVPHKTSLPEGIRVGTVMRIRGVVPNKAGRFYVNLLCGEAPGSEAALHFNPRLDESTVVFNTLEQGAWGREERGTGIPFQRGQPFDVLLIATDEGFKAVVGDSEYHHFRYRIPPARVRLLEVGGDLQLESVSVF
glycan array binding signal (z-score) [1]: -0.198
glycan array binding signal (z-score) [2]: -0.206
glycan array binding signal (z-score) [3]: -0.206
glycan array binding signal (z-score) [4]: -0.132
glycan array binding signal (z-score) [5]: -0.209
glycan array binding signal (z-score) [6]: -0.208
glycan array binding signal (z-score) [7]: -0.216
glycan array binding signal (z-score) [8]: -0.122
glycan array binding signal (z-score) [9]: -0.044
glycan array binding signal (z-score) [10]: -0.169
glycan array binding signal (z-score) [11]: 0.464
glycan array binding signal (z-score) [12]: -0.187
glycan array binding signal (z-score) [13]: 0.086
glycan array binding signal (z-score) [14]: 0.296
glycan array binding signal (z-score) [15]: -0.207
glycan array binding signal (z-score) [16]: -0.205
glycan array binding signal (z-score) [17]: -0.21
glycan array binding signal (z-score) [18]: -0.135
glycan array binding signal (z-score) [19]: -0.208
glycan array binding signal (z-score) [20]: -0.194
glycan array binding signal (z-score) [21]: -0.192
glycan array binding signal (z-score) [22]: -0.071
glycan array binding signal (z-score) [23]: -0.187
glycan array binding signal (z-score) [24]: -0.16
glycan array binding signal (z-score) [25]: 9.85
glycan array binding signal (z-score) [26]: 8.28
glycan array binding signal (z-score) [27]: -0.117
glycan array binding signal (z-score) [28]: -0.199
glycan array binding signal (z-score) [29]: -0.205
glycan array binding signal (z-score) [30]: -0.182
